Experimental data: PubChem BioAssay AID624202 (National Center for Advancing Translational Sciences (NCATS), 2012)
About 4,000 (1.1%) of roughly 380,000 compounds were called active. Inconclusive means that the source gave no clear call. Such entries were picked first, then a sample of the others. The call rests on the fitted dose curve; in most records, active means well fitted activation curve with a large enough effect; inconclusive means small, poorly fitted or top-dose-only effect; inactive means no such curve, though single readings can be large or run the other way. A potency beside an inconclusive call is a rough fit, not a confirmed value.

Assay: qHTS Assay to Identify Small Molecule Activators of BRCA1 Expression; further: nearly all actives have a fitted effect of over 80% in size
Details: MCF7-BRCA1-FFLuc reporter, luminescence, 48 h; activation: at 46.1 µM (top of the series), scaled: vehicle 0%, 10 µM genistein 100% unless noted
In short: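 Cells: MCF7-BRCA1-FFLuc, 2000/well. Exposure: 48 h, 37 °C, 5% CO2. Read: luminescence, 15 min post-substrate. Controls: genistein 10 microM (maximal activation), DMSO (neutral).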
Potency means the concentration at half of the fitted maximal effect; tags describe the fitted curve by direction and shape.

Compound	activation	Potency
CCc1ccc2nc(N3CCC(C(=O)O)CC3)sc2c1	inconclusive: -54.8% [activator]	–
COc1ccc(CNc2nc(-c3ccccc3)nn2C(=O)c2ccc([N+](=O)[O-])cc2)cc1	–	active: 11.2 µM
Clc1ccc(CSc2ccc(-c3ccco3)nn2)cc1	–	active: 12.6 µM
Fc1ccc2cc(-c3cccnc3)ncc2c1	–	inconclusive: 15.8 µM [activator, partial curve, poor fit]
CC(C)(C)NC(=O)CSc1nc(-c2ccc(F)cc2)cs1	–	inconclusive: 2.51 µM [activator, full curve, poor fit]
Cc1ccc(-n2c(C)nn(CCOc3ccccc3)c2=O)cc1	–	active: 6.31 µM
CCn1c(=O)c2cc(C(=O)N3CCOCC3)sc2c2ccccc21	inactive: -5.28%	–
CC1CCN(c2ncnc3c2cnn3-c2ccccc2)CC1	–	inconclusive: 1.58 µM [activator, partial curve, poor fit]
O=[N+]([O-])c1cc(/C=N/N2CCCCC2)ccc1Cl	–	active: 11.2 µM
COc1cccc(C=Nc2ccccc2C(=O)Nc2ccccc2)c1O	–	inconclusive: 10 µM [activator, partial curve, poor fit]
Cc1ccccc1-c1nnc(SCC(=O)N2CCCC2)o1	–	inconclusive: 10 µM [activator, partial curve, poor fit]
Cc1cccc(OCC(=O)NCC(C)(C)N2CCOCC2)c1	inactive: 1.77%	–
Fc1ccc(-c2nnc(-c3ccc(F)cc3)o2)cc1	–	active: 2.51 µM
CCN(CC)c1ccc(NC(=O)c2ccc3c(c2)OCO3)cc1	–	inconclusive: 2.24 µM [activator, partial curve, poor fit]
COc1cccc2cc(CC(=O)c3ccc(C)cc3C)c(=O)oc12	–	active: 11.2 µM
Fc1cccc(/C=N/Nc2cc(N3CCOCC3)ncn2)c1	–	inconclusive: 3.55 µM [activator, full curve, poor fit]
COc1ccc(-c2cc3ccccc3c(=O)o2)cc1	–	inconclusive: 11.2 µM [activator, single point]
N/C(=N\OC(=O)C1CCCCC1)c1ccc(Br)cc1	–	inconclusive: 11.2 µM [activator, partial curve, poor fit]
Cc1ccc(OCc2nc(-c3cccs3)no2)c([N+](=O)[O-])c1	–	inconclusive: 0.631 µM [activator, full curve, poor fit]
O=C(Nc1nccs1)c1ccc(NC(=O)c2ccco2)cc1	–	active: 5.01 µM
Cc1cc[n+](CC(=O)c2ccc(F)cc2)cc1	inactive: 10.5%	–
COc1ccc(NC(=O)Nc2c(O)ccc3ccccc23)cc1	–	inconclusive: 35.5 µM [activator, single point]
Cc1ccc(CNc2ccc3c(c2)ncn3C(C)(C)C)cc1	–	inconclusive: 2 µM [activator, partial curve, poor fit]
O=C(NC(=S)Nc1ncccn1)c1ccc(Cl)cc1Cl	–	inconclusive: 2.51 µM [activator, full curve, poor fit]
Cn1c(=NC(=O)c2ccccc2[N+](=O)[O-])sc2cccc(F)c21	–	inconclusive: 1.58 µM [activator, full curve, poor fit]
O=C1NC(=O)C(=Cc2ccc(Cl)c(Cl)c2)S1	–	inconclusive: 2.51 µM [activator, partial curve, poor fit]

Compound	activation	Potency
COc1ccc(CNc2nccs2)cc1	–	inconclusive: 22.4 µM [activator, single point]
Cc1ccc(NC(=O)C(=O)NCc2ccccn2)cc1	–	inconclusive: 17.8 µM [activator, partial curve, poor fit]
Cc1nc(NC(=O)/C=C/c2ccccc2)sc1C(=O)Nc1ccccc1Cl	–	inconclusive: 14.1 µM [activator, partial curve, poor fit]
O=C(CC1CC2CCC1C2)NC1CCCCCCC1 (stereo unspecified)	–	inconclusive: 15.8 µM [activator, partial curve, poor fit]
O=C(c1cc2ccccc2o1)c1cccs1	–	inconclusive: 12.6 µM [activator, partial curve, poor fit]
N#Cc1ccccc1S(=O)(=O)N1CCC(C(=O)NCc2ccccc2CN2CCCC2)CC1	inactive: -1.43%	–
COc1cc(/C=N/NC(=O)c2nnn(-c3nonc3N)c2C)ccc1OCc1ccc(Cl)cc1	–	inconclusive: 12.6 µM [activator, partial curve, poor fit]
CCOc1ccc(C(=O)Nc2ccc(NC(=O)c3ccco3)c(Cl)c2)cc1Cl	inactive: -29%	–
CC(=C/c1ccc(C(C)C)cc1)/C=N/NC(=O)CSc1ccccn1	–	inconclusive: 14.1 µM [activator, partial curve, poor fit]
O=C(COc1ccc(Br)cc1Cl)NC1CCCCC1	–	inconclusive: 2.82 µM [activator, full curve, poor fit]
CN=c1scc(-c2ccccc2F)n1/N=C(\C)c1cccnc1	–	inconclusive: 1.26 µM [activator, full curve, poor fit]
COc1ccc(NC(=O)Nc2cc(C)ccc2F)cc1OC	–	inconclusive: 15.8 µM [activator, single point]
CCOCC(=O)Nc1cc(C(=O)Nc2ccccc2)ccc1Cl	–	inconclusive: 20 µM [activator, single point]
CCOC(=O)C1CCCN(S(=O)(=O)CCNC(=O)c2cccc(OC)c2)C1 (stereo unspecified)	inactive: 5.43%	–
O=C(NCCC1=CCCCC1)c1cc2c(s1)CS(=O)(=O)C2	–	inconclusive: 22.4 µM [activator, single point]
Cc1ccc(C(=O)NCCc2cccs2)cc1	inconclusive: -70.8% [activator]	–
Cc1c(Cl)cccc1NC(=O)c1cc2sccc2n1Cc1ccc(F)cc1	inactive: -18.4%	–
O=C(N/N=C\c1ccc2c(c1)OCO2)c1ccco1	–	active: 3.16 µM
Cc1ccc(Nc2cc(-n3cccn3)ncn2)c(C)c1	–	active: 3.16 µM
c1ccc2c(c1)NCC1CCCN21 (stereo unspecified)	inactive: -21.9%	–
CC(C)CCNC(=O)c1cc2c(=O)n3ccccc3nc2s1	–	inconclusive: 3.55 µM [activator, partial curve, poor fit]
O=C(CCCOc1ccccc1)N1CCCc2ccccc21	–	inconclusive: 22.4 µM [activator, single point]
COc1ccccc1-c1nn2c(=O)cc(C)nc2s1	–	active: 10 µM
Cc1ccccc1-c1cccc([C@@H]2C[C@H]3[C@H](CON3C)CN2C(=O)CCc2ccccc2)c1	inactive: -14.3%	–
CCN(CC)C(=O)C1=C(C)N(Cc2ccc(F)cc2)C(=O)C(CC(=O)NC(c2ccccc2)c2ccccc2)C1 (stereo unspecified)	inactive: -9.63%	–
O=C(Nc1ccc(Br)cc1)c1cccc(OC(=S)N2CCOCC2)c1	inactive: -37%	–

Compound	activation	Potency
C=CCn1c(C)cc(C(=O)CSc2nc3ccccc3[nH]2)c1C	inconclusive: -89.9% [activator]	–
O=C(/C=C/c1c(F)cccc1Cl)NCc1ccco1	–	inconclusive: 17.8 µM [activator, partial curve, poor fit]
CCOc1ccc(CCNC(=O)c2cc(-c3ccccc3)c(N3CCOCC3)s2)cc1	inactive: -37%	–
CCOC(=O)c1c(NC(=O)Cc2ccccc2)sc2c1CCN(CC)C2	inactive: -11.8%	–
CC1(C)C=Cc2c(ccc3c2OC[C@@H](c2ccc(O)cc2O)C3)O1	–	active: 11.2 µM
CCOc1ccc2nc(/N=C/c3nc(-c4ccccc4)oc3O)sc2c1	–	inconclusive: 15.8 µM [activator, partial curve, poor fit]
O=[N+]([O-])c1ccc(-c2ccc(/C=N/O)o2)cc1	–	active: 8.91 µM
O=C(CC(=O)c1ccccc1)Nc1ccc2c(c1)OCCO2	–	inconclusive: 1.41 µM [activator, full curve, poor fit]
OCCC1CN(Cc2ccc(Oc3ncccn3)cc2)CCN1Cc1ccc(F)c(F)c1 (stereo unspecified)	inactive: 2.78%	–
C=CCSc1n[nH]c(-c2ccc(OC)cc2)n1	–	inconclusive: 2.82 µM [activator, full curve, poor fit]
O=C(CNC(=O)c1ccccc1F)NCCc1ccccc1F	–	inconclusive: 11.2 µM [activator, partial curve, poor fit]
COc1ccc(C(=O)Nc2nc3ccccc3c(=O)[nH]2)cc1	–	inconclusive: 1 µM [activator, full curve, poor fit]
Nc1nc(Nc2ccccc2)nc(NCc2ccccc2)c1[N+](=O)[O-]	inactive: -68%	–
COc1ccc(/C=C/C(=O)c2c(O)cc(C)oc2=O)c(OC)c1	–	inconclusive: 1.58 µM [activator, partial curve, poor fit]
O=C(CSC1=NCCS1)N1CCc2ccccc21	–	active: 3.16 µM
CC(=O)Nc1ccc(S(=O)(=O)NC2=NCN(C(C)C)CN2)cc1	inactive: 12.1%	–
CCC(=O)Nc1cccc(-c2ccc(N3CCN(C)CC3)nn2)c1	–	inconclusive: 2.51 µM [activator, full curve, poor fit]
COc1ccc(NC(=O)c2cnn(-c3ccccc3)c2C)cc1OC	–	active: 3.98 µM
O=C(CN1C(=O)CCC1=O)Nc1nc(-c2ccc3ccccc3c2)cs1	–	inconclusive: 14.1 µM [activator, single point]
O=C(NCc1ccc(Cl)cc1)C(=O)NCC(c1cccnc1)N1CCN(c2ccc(F)cc2)CC1 (stereo unspecified)	inactive: -56.7%	–
O=C(c1cccs1)N1CCc2ccccc21	–	active: 7.94 µM
O=C(Nc1nnc(C2CCCO2)s1)c1ccc(Br)cc1 (stereo unspecified)	–	active: 11.2 µM
COc1cc(/C=C/c2nc3ccccc3c(=O)[nH]2)ccc1OC(F)F	–	active: 3.16 µM
O=C(Nc1ccc(O)cc1C(=O)O)c1ccc2c(c1)C(=O)N(Cc1ccco1)C2=O	inactive: -1.93%	–
